Results taken from the RNAGym collection of RNA variant scans (doi:10.1093/nar/gkz1192).
Read counts are not given, so values of variants with three or more changes are uncertain.

B1: CPEB3 Ribozyme (parent)
chain: UAACAGGGGGCCACAGCAGAAGCGUUCACGUCGCAGCCCCUGUCAGAUUCUGGUGAAUCUGCGAAUUCUGCUGUAUAUCUC

Variants of: B1
Assay: self-cleavage, relative activity (ratio to wild type); higher = more cleavage; in vitro, sequencing
Method in brief: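 Relative activity was defined as the cleaved/total read fraction for a variant divided by the same fraction for the unmutated ribozyme. CPEB3 self-cleaving ribozyme libraries were made by rounds of error-prone PCR, barcoded, and transcribed in vitro with T7 RNA polymerase for 5 hours at 37°C, and cleavage ran through transcription plus a 15 min DNase I step before EDTA. Illumina sequencing of template-switched reverse transcripts gave the reads, and DNA sequencing mapped the barcodes. Averages come from three batches, using variants with at least 5 reads.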
UAACAGGGGGACACAGCAGUAGCGUUCACGUCGCUGCCCCUGUCAGAUCCUGGUGAAUCUGUGAAUUCUGCUGUAUAUCUC [C11A A20U A35U U49C C62U] gave a self-cleavage of 0.06.
UAACAGGGGGACACAGCAGAGGCGUCCACGUCGCAGCCCCUGUCAGAUUCUGGUGAAUCUGCGAAUUCUGCUGUAUAUCUC [C11A A21G U26C] gave a self-cleavage of 0.06.
In the case of UAACAGGGGGACACAGCAGAAGCGUUCGCGUCGCAGCCCCUGUCUGAUUCUGGUGAAUCUGCGAAUUCUGCUGUAUAUGUC [C11A A28G A45U C79G], the self-cleavage is reported as 0.24.
For UAACAGGGGGACACAGCAGAAGCGUUCGCGUCGCAGCCCCUGUCAGAUUCUGGUGAGUCUGCGAAUUCUGCUGUAUAUCUC [C11A A28G A57G], the self-cleavage was 0.23.
Variant UAACAGGGGGACACAGCAGAAGCGUUCGCGUCGCAGCCCCCGUUAGAUUCUGGUGAAUCUGCGAAUUCUGCUGUAUAUCUC [C11A A28G U41C C44U] has a self-cleavage of 0.19.
For UAACAGGGGGAUACAGCUGAAGCGUUCACGUCGCAGCCCCUGUCAGAUUCUGGUGAAUCUGCGGAUUCUGCAGUAUAUCUC [C11A C12U A18U A64G U72A], the self-cleavage was 0.19.
With UAACAGGGGGACACAGCAGAAGUGUUCACGUCGCAGCCCCUGACAGAUUCUGGUGAAUCUGUGAAUUCUGCUGUAUAUCUC [C11A C23U U43A C62U] the self-cleavage was 0.07.
Work on UAACAGGGGGACACAGCAGAAGCGUUCACGUCGCAGCUCCUGUCAGAUUCUGGUGAACCUGCGAAUUCUGCUGUAUAUCUC [C11A C38U U58C] yielded a self-cleavage of 0.2.
UAACAGGGGGACACAGCAGAAGCGUUCACAUCGCAGCCCCUGUCAGAUUCUGGUGAAUCUGCGGAUUCUGCUGAAUAUCUC [C11A G30A A64G U74A] gave a self-cleavage of 0.15.
UAACAGGGGGACACAGCAGAAGCGUUCACAUCGCAGCCCCUGUCAGAUUCUGGUGAAUCUGCGAAUUCUGCUGUAUGUCUC [C11A G30A A77G] showed a self-cleavage of 0.07.
For UAACAGGGGGACACAGCAGAAGCGUUCACGUCACUGCCCCUGGCAGAUUCUGGUGAAUCUGCGAAUUCUGCUGUAUAUCUC [C11A G33A A35U U43G], the self-cleavage was 0.03.
UAACAGGGGGACACAGCAGAAGCGUUCACGUCGCAGCCCCUGUCAGAUUCUGUUGAACCUGCGAAUUCCGCUGUAUAUCUC [C11A G53U U58C U69C] gave a self-cleavage of 0.17.
For UAACAGGGGGACACAGCAGAAGCGCUCACGUCGCAGCCCCUGUCAGAUUCUGGUGAGUCUGCGAAUUCUGCUGUGUAUCUC [C11A U25C A57G A75G], the self-cleavage was 0.04.
In the case of UAACAGGGGGACACAGCAGAAGCGCUCACGUCGCAGCCCCUGUCAGAUUCUGGUGAAUCUGCAAACUCUGCUGUAUAUCUC [C11A U25C G63A U66C], the self-cleavage is reported as 0.06.
UAACAGGGGGACACAGCAGAAGCGUUCACGCCGCUGCCCCUGUCAGAUUCUGGUGGAUCUGCGAAUUCUGCUGCAUAUCUC [C11A U31C A35U A56G U74C] gave a self-cleavage of 0.05.
For UAACAGGGGGACACAGCAGAAGCGUUCACGCCGCAGCCCCUGUCAGAUUCUGGAGAAUCUGCGAAUUCUGCUGUAUAUCUC [C11A U31C U54A], the self-cleavage was 0.13.
For UAACAGGGGGACACAGCAGAAGCGUUCACGUCGCAGCCCCAGUCAGAUUCUGGUGAGUCUGCGAAUUCUGCUGUAUAUCUC [C11A U41A A57G], the self-cleavage was 0.38.
UAACAGGGGGACACAGCAGAAGCGUUCACGUCGCAGCCCCCGUCAGAUUCUGGUGAAUCUGCGAGUUCUGCUGUAUAUCUC [C11A U41C A65G] showed a self-cleavage of 0.2.
UAACAGGGGGACACAGCAGAAGCGUUCACGUCGCAGCCCCUGCAAGAUUCUGGUGAAUCUGCGAAUUCUGCUGUAUAUCUC [C11A U43C C44A] gave a self-cleavage of 0.31.
With UAACAGGGGGACACAGCAGAAGCGUUCACGUCGCAGCCCCUGUCAGAUUCCGGUGAAUCUGCGAAUUCUGCUGAAUAUCUC [C11A U51C U74A] the self-cleavage was 0.4.
For UAACAGGGGGACACAGCAGAAGCGUUCACGUCGCAGCCCCUGUCAGAUUCUGGCGAAUCUGCGAAUUCUGCUGUAUCUCUC [C11A U54C A77C], the self-cleavage was 0.1.
Work on UAACAGGGGGGCGCCGCAGAAGCGUUCACGCCGCAGCCCCUGGCAGAUUCUGGUGAAACUGCGAAUUCUGCUGAAUAUCUC [C11G A13G A15C U31C U43G U58A U74A] yielded a self-cleavage of 0.
UAACAGGGGGGCGCAGCAGACGCGUUCUCGUCGCAGCCCCUAUCAGAUUCUGGUGAAUCUGAGAAUUCUGCUGUAUAUCUC [C11G A13G A21C A28U G42A C62A] showed a self-cleavage of 0.02.
In the case of UAACAGGGGGGCGCAGCAGAAGCGUCCACGUCUCAGCCCCUGUCAGAUUCUGGUGAAUCUGCGAAUUCUGCUGUAUAUCUC [C11G A13G U26C G33U], the self-cleavage is reported as 0.06.
UAACAGGGGGGCUCAGCAGCAGCGUUCACGUCGCAGCCACUGUCAGAUUCUGGUGAAUCUGCGAAUUCUGCCGUAUAUCUG [C11G A13U A20C C39A U72C C81G] showed a self-cleavage of 0.04.
UAACAGGGGGGCUCAGCAGAAGCGUUCACGUCGCAGCCCCUGUCGGAUUCUGGCGAAUCUGCGAAUUCUGCUGUAUAUCUC [C11G A13U A45G U54C] gave a self-cleavage of 0.26.
In the case of UAACAGGGGGGCUCAGCAGAAGCGUUCACGUCGCAGCCCCUGUCAGAUUCUGGUGAGUCUGCGAAUUCUGCUGUAUAACUC [C11G A13U A57G U78A], the self-cleavage is reported as 1.14.
In the case of UAACAGGGGGGCUCAGCAGAAGCGUUCACGUCGCAGCCCCCGUCAGAUCCUGGUGAAUCUGCGAAUUCCGCUGUAUGUCUA [C11G A13U U41C U49C U69C A77G C81A], the self-cleavage is reported as 0.16.
For UAACAGGGGGGCACGGCAGAAGCGUUCUCGUCGCAGCCCCUGUCAGAUUCUGGUGAAUCUGCGAAUUCUGCUGUAUAUCGC [C11G A15G A28U U80G], the self-cleavage was 0.1.
UAACAGGGGGGCACGGCAGAAGCGUUCACGUCGCAGCCCCUGUCAGAUUCUGGUGGAUCUGCGAAUACUGCUGUAUAUCUA [C11G A15G A56G U67A C81A] showed a self-cleavage of 0.06.
UAACAGGGGGGCACGGCAGAAGCGUUCACGUCGCAGCCGCUGUCAGAUUCUGGUGAAUCUGCGAAUUCUGCCGUAUAUCUC [C11G A15G C39G U72C] gave a self-cleavage of 0.36.
UAACAGGGGGGCACGGCAGAAGCGUACACGUCGCAGCCCGUGUCAGAUUCUGGUGAAUCUGCGAAUUCUGCUGUAUAUCUC [C11G A15G U26A C40G] showed a self-cleavage of 0.04.
Work on UAACAGGGGGGCACUGCAGAAGCGUUCACGUCGCAGCCCCUGGCAGAUCCUGGCGUACCUGCGAAUUCUGCUGUAUAUCUC [C11G A15U U43G U49C U54C A56U U58C] yielded a self-cleavage of 0.05.
With UAACAGGGGGGCACAGCCGAAGCGUUCACGUCGCAGCCCCUGUCAGAUUCUGGUGAAUCUGCGAAUUCCGCUGUAUAUCUC [C11G A18C U69C] the self-cleavage was 0.05.
